The values that follow come from PMC6919601, “Identification of Plasmodium dipeptidyl aminopeptidase allosteric inhibitors by high throughput screening” (PLoS ONE, 2019).

Hit rate of the full screen: of about 110,000 compounds, about 230 (0.21%) showed an effect of 50% or more. This is one part of the list.
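Also: 30 min substrate incubation versus DMSO and 10 µM JCP410 controls.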

This assay deals with DPAP1 (Plasmodium falciparum, UniProt Q8IIJ9). The experiment in a line: primary screen, percent inhibition; read by cleavage of a fluorogenic dipeptide substrate; higher = more effect of the substance. Further details: species or system P. falciparum D10 trophozoite lysates; single well.
DPAP1, sequence (Q8IIJ9 whole entry, looked up): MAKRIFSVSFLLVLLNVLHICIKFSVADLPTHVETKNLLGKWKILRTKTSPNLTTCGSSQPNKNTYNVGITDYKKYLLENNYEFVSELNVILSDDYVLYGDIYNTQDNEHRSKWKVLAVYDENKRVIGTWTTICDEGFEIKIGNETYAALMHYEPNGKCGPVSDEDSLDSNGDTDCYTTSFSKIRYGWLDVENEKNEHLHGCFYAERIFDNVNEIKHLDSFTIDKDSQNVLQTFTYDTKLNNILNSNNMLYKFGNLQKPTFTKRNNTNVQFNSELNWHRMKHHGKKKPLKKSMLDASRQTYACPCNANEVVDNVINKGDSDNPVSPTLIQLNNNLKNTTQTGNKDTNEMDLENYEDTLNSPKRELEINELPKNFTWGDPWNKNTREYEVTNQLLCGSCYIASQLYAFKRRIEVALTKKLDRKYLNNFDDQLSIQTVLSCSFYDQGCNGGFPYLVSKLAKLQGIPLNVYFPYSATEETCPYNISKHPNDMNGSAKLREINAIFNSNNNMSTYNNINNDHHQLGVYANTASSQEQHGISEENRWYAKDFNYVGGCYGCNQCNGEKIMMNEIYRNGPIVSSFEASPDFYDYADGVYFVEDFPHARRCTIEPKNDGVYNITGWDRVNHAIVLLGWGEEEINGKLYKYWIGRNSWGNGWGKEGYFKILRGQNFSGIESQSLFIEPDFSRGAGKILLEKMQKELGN
As to `Cc1cccc(NC(=O)COc2ccc(S(=O)(=O)NC3CCCCC3)cc2)c1`, the “% Inhibition @ 10 uM” value is -0.891%.

In the case of `O=C(CCCn1nc(-c2ccccc2)c2cc(Cl)ccc21)NCCCN1CCCC1=O`, the “% Inhibition @ 10 uM” value is given as 0.291%.

Take `CCOc1cc(C2NC(=O)NC(C)=C2C(=O)Nc2ccc(Br)cc2)ccc1O` (centres unmarked): the “% Inhibition @ 10 uM” value stood at 4.03%.

With `CC(=O)Nc1cccc(NC(=O)c2ccccc2)c1`, the “% Inhibition @ 10 uM” value is on record as 3.35%.

On to `CCOC(=O)C1CCN(Cc2cccc(Cl)c2Cl)CC1`, for which the “% Inhibition @ 10 uM” value is on record as -3.56%.

For `COc1ccc(-c2nc(CS(=O)CC(=O)N3CCN(Cc4ccccc4)CC3)c(C)o2)cc1OC` (centres unmarked), the “% Inhibition @ 10 uM” value was -4.71%.

Consider `CC(C)c1ccccc1OCC(=O)Nc1ccc(S(=O)(=O)N2CCc3ccccc32)cc1`, for which the “% Inhibition @ 10 uM” value is -3.26%.

Regarding `CN(CCc1ccccn1)CC1CC2C=CC1C2` (centres unmarked), the “% Inhibition @ 10 uM” value is given as -1.21%.

In the case of `COc1cc(CN2CCN(C3C4CC5CC(C4)CC3C5)CC2)cc(OC)c1OC` (centres unmarked), the “% Inhibition @ 10 uM” value is recorded as -4.7%.

Take `Cc1cc(C)c(S(=O)(=O)N2CCCC2=O)c(C)c1`: the “% Inhibition @ 10 uM” value was 2.51%.

For the molecule `COCCCN(C(=O)NCc1noc2ccccc12)C(C)c1ccncc1` (centres unmarked), the “% Inhibition @ 10 uM” value was -0.826%.

On to `COC(=O)c1cccc(/C=N/N=C(/N)SC)c1O`, for which the “% Inhibition @ 10 uM” value amounted to 2.8%.

With `CCCN1CCC(NCc2ccccc2C(F)(F)F)CC1`, the “% Inhibition @ 10 uM” value is given as -3.57%.

`Cn1c2ccc([N+](=O)[O-])cc2c2c(O)nccc21`: the “% Inhibition @ 10 uM” value is reported as 1.4%.

As for `Nc1nnnn1/N=C/c1ccccc1OCc1ccc(Cl)cc1Cl`, the “% Inhibition @ 10 uM” value was 6.11%.

`c1ccc2oc(-c3ccc(-c4nc5ccccc5o4)s3)nc2c1`: the “% Inhibition @ 10 uM” value is recorded as -0.294%.

Consider `O=C(c1cc2ccc3cccnc3c2[nH]1)N1CC=C(c2ccccc2)CC1`, for which the “% Inhibition @ 10 uM” value turned out to be 0.184%.

On to `CCC(C)NC(=O)C(CC)n1nc(C)c2sc3ccccc3c2c1=O` (centres unmarked), for which the “% Inhibition @ 10 uM” value was -1.81%.

In the case of `O=C(C1CCC1)N1CCN(c2ccccn2)CC1`, the “% Inhibition @ 10 uM” value is -8.67%.

Regarding `Cc1ccc(NC(=O)[C@@H]2C3C=CC(C3)[C@@H]2C(=O)O)c(C)c1` (some centres unmarked), the “% Inhibition @ 10 uM” value is recorded as -4.66%.

As to `O=c1[nH]c(=O)n(-c2ccc(Cl)cc2)c2c1C(C(F)(F)F)(C(F)(F)F)NC(c1ccco1)=N2`, the “% Inhibition @ 10 uM” value is listed as 1.93%.

Turning to `Cc1nn(CCCC(=O)NC2CCCC(C)C2C)c(=O)c2cc3sccc3n12` (centres unmarked), the “% Inhibition @ 10 uM” value is -3.35%.

`O=C(c1ccco1)N1CCN(c2c3c(nc4nncn24)CCC3)CC1`: the “% Inhibition @ 10 uM” value is -0.808%.

Regarding `CCOc1ccc(CN2CCN(c3ccccc3Cl)CC2)cc1`, the “% Inhibition @ 10 uM” value is recorded as -6.21%.

In the case of `O=S(=O)(c1ccc(OC(F)(F)F)cc1)N1CCN(c2ncccn2)CC1`, the “% Inhibition @ 10 uM” value came out at 4.83%.

`Cc1ccc2nc(O)c3cc(C(=O)N4CC(C)CC(C)C4)sc3c2c1` (centres unmarked): the “% Inhibition @ 10 uM” value is -3.94%.

In the case of `O=C1C(Cl)=C(Nc2ccccc2)C(=O)N1c1ccccc1`, the “% Inhibition @ 10 uM” value came out at 4.75%.

For the molecule `CCCC(=O)Nc1nc2ccc(OCC)cc2s1`, the “% Inhibition @ 10 uM” value is on record as 4.64%.

Regarding `Cc1ccc(S(=O)(=O)N2CCOCCOCC2)cc1`, the “% Inhibition @ 10 uM” value was -9.81%.

As to `Cc1ccc(Cn2c(=O)c3ccccc3n3c(CCC(=O)NCc4ccccc4)nnc23)cc1`, the “% Inhibition @ 10 uM” value was -0.692%.

As to `Cc1cc(C)c2c(n1)sc1c3c(c(O)nc12)C(c1cccc(Cl)c1)C(C#N)=C(N)O3` (centres unmarked), the “% Inhibition @ 10 uM” value was determined as 0.726%.

Turning to `c1ccc2c(c1)n(CCN1CCOCC1)c1nc(C34CC5CC(CC(C5)C3)C4)cn21`, the “% Inhibition @ 10 uM” value was 0.605%.

With `CCOC(=O)Nc1ccc2c(C)cc(=O)oc2c1`, the “% Inhibition @ 10 uM” value was determined as 0.467%.

Consider `Cn1c(=O)c2sccc2n2c(CCCC(=O)N3CCOCC3)nnc12`, for which the “% Inhibition @ 10 uM” value was -2.76%.

Take `CCOCCCNC(=O)CCn1nc(-c2ccccc2)ccc1=O`: the “% Inhibition @ 10 uM” value is -5.43%.

For the molecule `COCCNC(=O)Cn1ncc2c3ccccc3n(Cc3ccccc3F)c2c1=O`, the “% Inhibition @ 10 uM” value worked out at 3.4%.

`Cc1onc(-c2ccccc2)c1C(=O)NC(CC(=O)O)c1ccc(OC2CCCC2)cc1` (centres unmarked): the “% Inhibition @ 10 uM” value stood at 1.32%.

As for `Cc1ccc(-c2ccccc2)n1-c1ccc2ncccc2c1`, the “% Inhibition @ 10 uM” value worked out at 2.05%.

Consider `O=C(O)CC(NC(=O)Cc1ccc(Cl)cc1)c1ccco1` (centres unmarked), for which the “% Inhibition @ 10 uM” value is reported as -1.24%.

For `COc1ccc(C(=O)Nc2nonc2NC(=O)c2ccc(OC)cc2)cc1`, the “% Inhibition @ 10 uM” value is reported as -0.0735%.

In the case of `Cc1cc(C)c(C(=O)O)[nH]1`, the “% Inhibition @ 10 uM” value was found to be 4.35%.

For `c1ccc(CN2CCOCCN(Cc3ccccc3)CCOCC2)cc1`, the “% Inhibition @ 10 uM” value was -0.968%.

Turning to `Cc1ccc(NC(=O)Cc2ccc(F)cc2)cc1O`, the “% Inhibition @ 10 uM” value was found to be 4.31%.

Regarding `CC(=O)OC(CN1CCCCCC1)c1ccccc1` (centres unmarked), the “% Inhibition @ 10 uM” value was -5.28%.

In the case of `CCCc1nn(C)c2c(O)nc(-c3cc(S(=O)(=O)Nc4ccc(C)cc4)ccc3OCC)nc12`, the “% Inhibition @ 10 uM” value is -3.39%.

`COc1ccc(CCNc2nnc(C)c3nnn(Cc4ccccc4Cl)c23)cc1`: the “% Inhibition @ 10 uM” value was found to be 9.21%.

For the molecule `CCOC(=O)N1CCN(C(=O)COc2ccc(C(C)C)cc2Br)CC1`, the “% Inhibition @ 10 uM” value was 3.87%.

Regarding `CCOCCCNC(=O)c1cnn(-c2ccc(C)cc2)c1C1CCN(C(=O)OC(C)(C)C)CC1`, the “% Inhibition @ 10 uM” value is on record as -0.707%.

As for `Cc1ccccc1CN1CCN(C)CC1`, the “% Inhibition @ 10 uM” value is listed as -5.61%.

In the case of `O=C(CCS(=O)(=O)Cc1ccc(Cl)cc1)NCCCN1CCOCC1`, the “% Inhibition @ 10 uM” value was -0.0542%.

Turning to `C=C(C)Cn1c(CN2CCOCC2)nc2c1c(=O)n(C)c(=O)n2C`, the “% Inhibition @ 10 uM” value worked out at 2.31%.

With `Cc1cccc(NC(=O)C2c3ccccc3C(=O)N(C3CCCC3)C2c2cccs2)n1` (centres unmarked), the “% Inhibition @ 10 uM” value was 1.69%.

As to `O=C(c1ccc(F)cc1)N1CCN(c2ccccc2)CC1`, the “% Inhibition @ 10 uM” value is -1.59%.

For `O=C(NCc1ccco1)c1cc2nc(-c3cccs3)cc(C(F)(F)F)n2n1`, the “% Inhibition @ 10 uM” value amounted to 2.65%.

For the molecule `COC(=O)c1cc(-c2cccc(N)c2)nc2ccccc12`, the “% Inhibition @ 10 uM” value is 1.38%.

Regarding `Cc1cccc(OCCCCSCc2nc3ccccc3[nH]2)c1`, the “% Inhibition @ 10 uM” value is 4.8%.

With `CCC(C)c1ccccc1OCC(=O)Nc1ccccc1C(N)=O` (centres unmarked), the “% Inhibition @ 10 uM” value is -1.89%.

Regarding `CCC(C)N1CCN(C(=O)C2CCN(S(=O)(=O)c3c(C)noc3/C=C/c3ccco3)CC2)CC1` (centres unmarked), the “% Inhibition @ 10 uM” value was found to be 0.458%.

For `Cc1cn(C(=O)c2cccc(Br)c2)c(C)n1`, the “% Inhibition @ 10 uM” value is -1.81%.

On to `CC(CNC1CCN(C)CC1)c1ccccc1` (centres unmarked), for which the “% Inhibition @ 10 uM” value is given as -8.55%.

`COc1cc(OC)cc(C(=O)Nc2cc(Cl)ccc2C)c1`: the “% Inhibition @ 10 uM” value is 6.37%.

Consider `Cc1nc2ncnn2c(O)c1NS(=O)(=O)c1ccc(CC(C)C)cc1`, for which the “% Inhibition @ 10 uM” value is recorded as -4.47%.

As to `CC(=O)NS(=O)(=O)c1ccc(NC(=O)c2cc(-c3ccc(C)cc3)nc3ccccc23)cc1`, the “% Inhibition @ 10 uM” value is recorded as -13.6%.

For `C=CCNC(=O)CCC(=O)c1ccc(OC)cc1`, the “% Inhibition @ 10 uM” value is recorded as -5.03%.

In the case of `CC(C)[C@H](O)[C@H](NC(=O)OCc1ccccc1)C(=O)NCC#N`, the “% Inhibition @ 10 uM” value is recorded as -1.5%.
